Reference: PubChem BioAssay AID1508623 (National Center for Advancing Translational Sciences (NCATS), 2021)
The whole screen tested about 48,000 compounds, of which about 450 (0.94%) were called active. Another 19% or so got no clear call; they are omitted. Calls follow the shape of the dose curve; as a rule, active = well fitted inhibition curve with a large enough effect; inconclusive = small, poorly fitted or top-dose-only effect; inactive = no such curve, though single readings can be large or run the other way. The list shows a part of the results.

test: Primary qHTS for Identification of Small Molecule Inhibitors of Huntingtin Promoter Activity; conditions: HEK293 HTT promoter firefly luciferase reporter (activity 0% = vehicle and -100% = no light), 24 h; series mostly up to 57.5 µM; activity change, negative = inhibition: at the top concentration; also: nearly all actives have a fitted effect of over 50% in size
Outline: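 HEK293 Fluc reporter, 2,500 cells/well, 24 h pre-culture; cpds up to 57.5 uM final, 24 h 37 degrees C; Dual-Glo, 10 min RT; normalized vehicle = 0%, zero RLU = -100%.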
Potency is read from the fitted curve at half-maximal effect.

| SMILES | activity change, negative = inhibition | Potency |
| --- | --- | --- |
| CCOc1c(Cl)cc(Cl)cc1CNCCSc1nnnn1C | inactive: -10.6% | – |
| COc1ccc(N2CCN(C(CNC(=O)C(=O)NCCCN(C)C)c3cccnc3)CC2)cc1 (stereo not given) | inactive: -8.33% | – |
| O=C(Nc1cc2c(cc1C(=O)c1ccccc1Cl)OCCO2)c1ccc(Br)cc1 | inactive: -11.8% | – |
| Cc1nc2c(-c3ccccc3)c(C)nn2c(C)c1CCC(=O)NCc1ccccc1Cl | inactive: -7.77% | – |
| Cc1ccc(-n2nnnc2CNC(=O)c2ccccc2S(C)(=O)=O)cc1C | inactive: -0.0304% | – |
| Nc1nc(OCc2ccccc2)c2[nH]cnc2n1 | inactive: 2.04% | – |
| FC(F)(F)c1cc(-c2ccccc2)nc2cc(-c3ccc(Br)cc3)nn12 | inactive: -1.15% | – |
| O=C(CCC(=O)OCC(=O)c1ccc(Cl)cc1)Nc1ccc(Oc2ccccc2)cc1 | inactive: -10.4% | – |
| CCCn1cc(S(=O)(=O)c2cc(C)ccc2C)c(=O)c2cc(F)c(N3CCOCC3)cc21 | inactive: 14.9% | – |
| CCc1ccc2occ(CC(=O)Nc3c(C(=O)Nc4ccc(C)cc4)oc4ccccc34)c2c1 | inactive: 7.01% | – |
| COC(=O)c1c(SCC(=O)Nc2cc(C)cc(C)c2)[nH]c2ccccc2c1=O | inactive: -23.1% | – |
| CCCNc1ncnc2onc(C)c12 | inactive: -24.5% | – |
| Cc1ccc(C(=O)n2nc(C)c(S(=O)(=O)N3CCOCC3)c2C)cc1 | inactive: -5.66% | – |
| CC(C)c1cnc2c(c1SCC(=O)Nc1ccccc1C(F)(F)F)c(=O)n(C)c(=O)n2C | inactive: -1.04% | – |
| COc1ccc(-n2nc(C(=O)Nc3ccccc3OC)c3c4ccccc4n(C)c3c2=O)cc1Cl | inactive: 0.432% | – |
| Cc1ccc(CSc2nc(-c3cccs3)ccc2C#N)cc1 | inactive: -18.5% | – |
| Cc1nnc(SCc2ccc(Cl)cc2)c2cc3occc3n12 | inactive: -9.03% | – |
| Cc1cccc(N2CCN(c3cc(C)nc4c(-c5ccc(Cl)cc5)c(C)nn34)CC2C)c1 (stereo not given) | inactive: -22.1% | – |
| Cc1noc(Cn2c(=O)c3ccccc3n(CC(=O)Nc3cccc(Cl)c3C)c2=O)n1 | inactive: 2.49% | – |
| COc1ccc(CCN(C)CCCC(C#N)(c2ccc(OC)c(OC)c2)C(C)C)cc1OC (stereo not given) | inactive | – |
| CC(=O)N1CCCc2cc(S(=O)(=O)N(C)CC(=O)Nc3ccc(C)cc3C)ccc21 | inactive: -5.64% | – |
| CC[N+]1(CC)CCC(=C(c2ccccc2)c2ccccc2)C1C (stereo not given) | inactive: 1.39% | – |
| N#Cc1nc(/C=C/c2ccc(F)cc2)oc1N1CCN(c2ccccc2)CC1 | inactive: -12% | – |
| O=C(Nc1cccc(NC(=O)c2ccc(Br)o2)c1)c1ccccc1 | inactive: 12.7% | – |
| COc1cccc(C2c3c(oc4ccc(C)cc4c3=O)C(=O)N2CCCN2CCOCC2)c1OC (stereo not given) | inactive: -2.96% | – |

| SMILES | activity change, negative = inhibition | Potency |
| --- | --- | --- |
| Cc1cccc(-c2noc(-c3cccnc3NCc3ccco3)n2)c1 | inactive: 63.8% | – |
| CC1=C(CC(=O)O)c2cc(F)ccc2/C1=C\c1ccc(S(C)=O)cc1 (stereo not given) | inactive: 7.92% | – |
| CCCn1c2ccccc2c2cnn(CC(=O)N3CCC(C(=O)OCC)CC3)c(=O)c21 | inactive: -15.2% | – |
| Cc1ccc(CNc2nc3ccccc3n3c(C)nnc23)cc1 | inactive: -9.69% | – |
| Cc1ccc(Sc2c(C)nn(C(=O)COc3ccc(F)cc3)c2C)cc1 | inactive: -12.3% | – |
| Cc1onc(-c2ccccc2)c1-c1ccc(S(N)(=O)=O)cc1 | inactive: -7.47% | – |
| O=C(NCCN1CCN(c2ccccc2)CC1)Nc1ccccc1Br | inactive: -3.48% | – |
| Cc1cccc(CNC(=O)C2CCN(c3nnc(-n4c(C)ccc4C)s3)CC2)c1 | inactive: -21.2% | – |
| Cc1cccc(-c2noc(CN(C(=O)c3ccccc3Cl)C(C)C)n2)c1 | inactive: -19.7% | – |
| COc1ccc(CCNC(=O)CCCn2c(=O)c3ccccc3n(Cc3ccc(F)cc3Cl)c2=O)cc1OC | inactive: -2.63% | – |
| Cn1c(C(=O)NCCc2ccccc2)cc2c(=O)n3ccccc3nc21 | inactive: 54.3% | – |
| Cc1ccc(CNc2nc3ccccc3c3nc(-c4cccc(C)c4)nn23)cc1 | inactive: 33.6% | – |
| COc1ccc(Cn2c(CNS(=O)(=O)c3ccc4c(c3)CCCC4)nc3cccnc32)cc1 | inactive: -14.4% | – |
| O=C(c1cnc(N2CCCCC2)c2ccccc12)N1CCN(c2ccccc2F)CC1 | inactive: -18.5% | – |
| Cc1ccc2c(c1)c1c(c(=O)n(Cc3ccccc3)c(=O)n1Cc1cccc(C(F)(F)F)c1)n2C | inactive: -6.07% | – |
| c1csc(C2=NC(c3ccncc3)=Nc3ccccc3N2)c1 | inactive: -5.38% | – |
| O=C(CSC1=Nc2ccccc2N=C(c2ccc(F)cc2)C1)NCc1ccccc1 | inactive: -13.7% | – |
| CC(=O)N1CCc2cc(CNS(=O)(=O)c3ccc(Br)s3)ccc21 | inactive: -5.46% | – |
| CCOc1ccc(C(=O)NCCc2sc3nc(-c4ccc(Cl)cc4)nn3c2C)cc1OCC | inactive: -9.3% | – |
| O=C(NCCc1ccc(Cl)cc1)c1ccc(Cn2c(=O)c3cccn3c3cccnc32)cc1 | inactive: -30.2% | – |
| CC1CCCN(Cc2cn3c(-c4cccc(Br)c4)nnc3s2)C1 (stereo not given) | inactive: 1.91% | – |
| CCCc1cc(=O)[nH]c(=S)[nH]1 | inactive | – |
| CC(C(=O)Nc1cc(C(F)(F)F)ccc1Cl)n1nnc2sc3c(c2c1=O)CCCC3 (stereo not given) | inactive: -7.36% | – |
| Cc1ccccc1C(=O)NCc1nc2cccnc2n1Cc1ccccc1 | inactive: 0.917% | – |
| Cc1ccc2oc(-c3ccc(C)c(NC(=O)c4ccc(C(C)(C)C)cc4)c3)nc2c1 | inactive: -2.04% | – |

| SMILES | activity change, negative = inhibition | Potency |
| --- | --- | --- |
| Cc1ccc(-c2csc(=Nc3ccccc3)n2Cc2ccc3c(c2)OCO3)cc1C | inactive: 23.9% | – |
| CCN1CCN(C(c2ccccc2)c2sc3nc(-c4ccco4)nn3c2O)CC1 (stereo not given) | inactive: 8.25% | – |
| CCOc1ccccc1C(=O)Oc1c(Sc2ccccc2)c(C)nn1C(C)(C)C | inactive: -3.02% | – |
| COc1ccccc1C(=O)n1nc(-c2ccco2)nc1NCc1ccc(Cl)cc1 | inactive: 46.9% | – |
| COc1ccccc1NC(=O)c1c(NCc2ccc(C)o2)sc2c1CCC(C)C2 (stereo not given) | inactive: -26.5% | – |
| COCCc1nn2c(=O)cc(COC(=O)COc3ccc(F)cc3)nc2s1 | inactive: -2.48% | – |
| CCCOC(=O)c1c(NC(=O)C2c3ccccc3Oc3ccccc32)sc2c1CCC(C)C2 (stereo not given) | inactive: -23.5% | – |
| CCC(O)c1cc2c(cc1NC(=O)c1cccc(Br)c1)OCCO2 (stereo not given) | inactive: -2.94% | – |
| O=C(O)[C@H](Cc1c[nH]c2ccccc12)N1C(=O)c2ccccc2C1=O | inactive: -22.2% [at 116 µM] | – |
| COc1ccc(-c2nc3ccccc3o2)cc1NC(=O)C(C)Oc1ccc(Cl)cc1Cl (stereo not given) | inactive: -1.27% | – |
| CC(C)C12CN3CC(C(C)C)(CN(C1)C3c1ccc(Cl)cc1)C2=O (stereo not given) | inactive: -7.12% | – |
| CN(C)CCCN(C(=O)c1cccs1)c1nc2ccc(F)cc2s1 | inactive: 10.1% | – |
| Cc1ccc(CNC(=O)CSc2nc(=O)[nH]c3c2CCCC3)cc1 | inactive: -4.35% | – |
| O=C(CN1C(=O)CCc2cc(S(=O)(=O)N3CCOCC3)ccc21)Nc1cccc(Cl)c1 | inactive: -22.8% | – |
| CCCSc1ncc(Cl)c(C(=O)N(Cc2ccc(N(C)C)cc2)C2CCS(=O)(=O)C2)n1 (stereo not given) | inactive: -25.9% | – |
| COc1ccc(NC(=O)Cn2cnc3sc(C)c(S(=O)(=O)N4CCN(C)CC4)c3c2=O)cc1Cl | inactive: -1.29% | – |
| CCOC(=O)CNC(=O)N1CCc2cc(S(=O)(=O)N3CCC(C)CC3)ccc21 | inactive: -17.4% | – |
| CCOC(=O)c1ccc(N2C(=O)c3n[nH]c(C)c3C2c2ccc(C(C)(C)C)cc2)cc1 (stereo not given) | inactive: 2.84% | – |
| CNC(=O)C1CCC(Cn2c(=O)[nH]c3ccsc3c2=O)CC1 (stereo not given) | inactive: 0.899% | – |
| Cc1ccccc1-n1c(/C=C/c2c(C)n(C)c3ccccc23)nc2ccccc2c1=O | inactive: -10.6% | – |
| CC(C)(C)OC(=O)N1CCC(c2c(C(=O)N3CCN(c4ncccn4)CC3)cnn2-c2ccccc2)CC1 | inactive: 5.84% | – |
| CCOC(=O)c1cccc(NC(=O)c2cc(CN3CCOCC3)on2)c1 | inactive: 60.9% | – |
| CSc1ccc(CNc2ncc(-c3ccccc3)n2C)cc1 | inactive: -20.9% | – |
| CCOC(=O)c1ccc(NC(=O)COCc2cc(-c3ccc4c(c3)OCO4)on2)cc1 | inactive: -8.06% | – |
| COc1ccc2c(c1)c(=O)c(S(=O)(=O)c1ccc(Cl)cc1)cn2C | inactive: -17.3% | – |

| SMILES | activity change, negative = inhibition | Potency |
| --- | --- | --- |
| Cc1ccccc1CNC(=O)C1CCN(c2nnc(-n3c(C)ccc3C)s2)CC1 | inactive: -17.5% | – |
| CC(=O)Nc1c(C)nn(-c2ccccc2)c1N1CCC(C(=O)Nc2ccc(F)cc2Cl)CC1 | inactive: 10.3% | – |
| Cc1cccc(NC(=O)N2CCC(CN3CCC(C)CC3)CC2)c1C | inactive: -9.94% | – |
| CCOC(=O)c1c(C)[nH]c(C)c1S(=O)(=O)N1CCCC(C(=O)Nc2ccccc2OCC)C1 (stereo not given) | inactive: -22% | – |
| CCc1cccc(CC)c1NC(=O)C(CC)n1nc(C)n2c(cc3cc(C)ccc32)c1=O (stereo not given) | inactive: 1.83% | – |
| Cc1ccc2c(c1)C(c1ccccc1)N(C(=O)c1ccccc1F)CC(=O)N2 (stereo not given) | inactive: -27.7% | – |
| CCOC(=O)c1cccc(NC(=O)c2cc3cc4ccc(C)cc4nc3o2)c1 | inactive: 1.42% | – |
| CCCn1c(SCc2nc(-c3cc(OC)ccc3OC)no2)nnc1-c1ccc(Cl)cc1 | inactive: -23.4% | – |
| CCN1CCN(c2csc3ccc(C)cc3c2=O)CC1 | inactive: 48.7% | – |
| Cc1ccccc1-c1noc(-c2cc3ccccc3oc2=O)n1 | inactive: 110% | – |
| COc1ccc(Br)cc1CNC(=O)CSc1cc(=O)n(C)c2ccccc12 | inactive: -12.7% | – |
| Cc1ccc(-c2nc(CS(=O)(=O)CC(=O)N3CCN(c4cccc(C)c4C)CC3)c(C)o2)cc1 | inactive: -21.4% | – |
| CC1CCN(S(=O)(=O)c2ccc3c(c2)oc(=O)n3CC(=O)NC(C)c2ccccc2)CC1 (stereo not given) | – | active: 14.1 µM |
| CCCc1ccc(OC(C)C(=O)Nc2sc3c(c2C(=O)OC)CCCCC3)cc1 (stereo not given) | inactive: -14.1% | – |
| CSc1nc(Nc2cccc(C)c2)c(C#N)c(-c2ccccc2)n1 | inactive: -3.8% | – |
| CNc1c(NC(=O)c2cc(OC)cc(OC)c2)c(=O)oc2ccccc12 | inactive: -7.87% | – |
| Cn1c(SCC(=O)N2CCCc3ccccc32)ncc(C(=O)Nc2ccc(F)cc2)c1=O | inactive: -4.61% | – |
| CCCCNC(=O)c1nn(-c2ccc(C)cc2)c(=O)c2c1c1ccccc1n2C | inactive: -26.8% | – |
| Cc1cccc(CNC(=O)c2cccc(NC(=O)N3CCSc4ncccc43)c2)c1 | inactive: -25.3% | – |
| O=C(O)CC(O)C(=O)O (stereo not given) | inactive: -3.31% | – |
| CCOc1ccc(-n2ccn3c(CC(C)CC(=O)O)nnc3c2=O)cc1 (stereo not given) | inactive: -9.75% | – |
| COc1ccc2c(c1)c1c(c(=O)n(-c3ccc(C)cc3)c(=O)n1CC(=O)N1CCCC1)n2C | inactive: -16.9% | – |
| CCC12CN3CC(C)(CN(C1)C3c1ccccc1C)C2=O (stereo not given) | inactive: -7.42% | – |
| CCOC(=O)C1=C[C@@H](OC(CC)CC)[C@H](NC(C)=O)[C@@H](N)C1 | inactive: 7.94% | – |
| CCOC(=O)N1CCC(NC(=O)c2ccc3c(c2)N(Cc2ccccc2)C(=O)c2ccccc2S3=O)CC1 (stereo not given) | inactive: -15.9% | – |
